The text below walks through data of PubChem BioAssay AID449756 (Broad Institute, 2010).

The structures appear in SMILES notation. The full ranking holds about 2,300 compounds; the median of “protection from cell death (ATP increase)” is about -18, and the highest 2% start at about 170. Some of the results follow. Entries with a potency or affinity are not part of this list. Where no call is shown, the source marks the result inconclusive.

The nature of the assay: INS-1E survival protection against cytokine death – cell-based, luminescence, retest, dose response (AID 449756). The conditions noted are these: INS-1E rat beta cells, cytokine apoptosis rescue, ATP luminescence 48 h; at 26 µM (top of the series) unless noted.
For `O=C(CCCCCCCCCCC(=O)NCc1cccnc1)NCc1cccnc1`, the protection from cell death (ATP increase) is 165%.
As to `CCN1CCN(Cc2ccc(NC(=O)c3ccc(C)c(NC(=O)C(=O)c4c[nH]c5ccccc45)c3)cc2C(F)(F)F)CC1`, the protection from cell death (ATP increase) was -18.8% [at 12 µM].
`COc1ccc(C(C(=O)NC2CCCCC2)N(C(=O)CCl)c2cccc(Cl)c2)cc1` (stereo unspecified): the protection from cell death (ATP increase) was -108% [at 6 µM].
For `COc1ccccc1-[n+]1c(C)cc(/C=C2\Sc3ccccc3N2C)cc1C`, the protection from cell death (ATP increase) came to 164%.
Turning to `O=C(NCc1cccnc1)c1ccc(NC(=O)c2ccc(Br)cc2)cc1`, the protection from cell death (ATP increase) worked out at 164%.
Under `O=C(CCC1CCCC1)Nc1ccc(C(=O)NCc2cccnc2)cc1` stands 158%; under `O=c1c(Cl)c(Cl)cnn1Cc1ccc(F)cc1`, -70.5% [at 12 µM].
The figure for `O=C(CCCCC(=O)Nc1ccc(F)cc1F)Nc1ccc(F)cc1F` is -41.8%; for `CC(C)(C)c1ccc(C(=O)Nc2ccc(C(=O)NCc3cccnc3)cc2)cc1` it is 154%.
In the case of `CCCCCCCCCn1c2c(c(=N)c3c1CCC3)CCC2`, the protection from cell death (ATP increase) is 150%.
With `CCN1/C(=C/C=C/c2sc3ccccc3[n+]2CC)Sc2ccccc21`, the protection from cell death (ATP increase) worked out at 150%.
In the case of `c1cc(-c2noc(CC3CCCCC3)n2)ccn1`, the protection from cell death (ATP increase) is -18.3%.
The figure for `Cc1cc(C)cc(OCCCn2ccnc2)c1` is -26.9%.
Consider `CC(C(c1cccs1)c1c(N)n(C)c(=O)n(C)c1=O)[N+](=O)[O-]` (stereo unspecified), for which the protection from cell death (ATP increase) was -48.7% [at 12 µM].
Consider `COc1ccc(S(=O)(=O)N2CCNCC2)cc1OC`, for which the protection from cell death (ATP increase) was -42.8%.
Regarding `CCCC1(c2ccccc2)NC(=O)N(CC(=O)Nc2cc(C)ccc2OC)C1=O` (stereo unspecified), the protection from cell death (ATP increase) is -27.1%.
For `O=C(NCc1cccnc1)c1ccc(NC(=O)c2cccc([N+](=O)[O-])c2)cc1`, the protection from cell death (ATP increase) was 149%.
The figure for `CCCCCCCCCCn1c2c(c(=N)c3c1CCC3)CCC2` is 156%; for `COc1ccc(N2CC(C(=O)N3CCN(c4ccccc4F)CC3)CC2=O)cc1` (stereo unspecified) it is -28%.
With `CCN1/C(=C/C(C)=C/c2sc3ccccc3[n+]2CC)Sc2ccccc21`, the protection from cell death (ATP increase) came out at 160%.
With `C=CC[n+]1c(/C=C2\C=Cc3cc(C)ccc3N2CC)ccc2ccccc21`, the protection from cell death (ATP increase) came to 142%.
As for `O=C(NCCOc1cccnc1)c1ccc(OC2CCN(Cc3ccccn3)CC2)cc1`, the protection from cell death (ATP increase) was found to be 167%.
The figure for `COc1ccc(/C=N/N2CCN(Cc3ccccc3)CC2)cc1` is -0.449%.
As to `CC(=O)SC1CC(=O)N(c2c(C)cccc2C)C1=O` (stereo unspecified), the protection from cell death (ATP increase) was -60.2%.
Under `Cc1cccnc1CCNCc1c(C(=O)N2C[C@@H](C)O[C@@H](C)C2)nc2ccc(Cl)cn12` stands -24.4%; under `Cc1cc(N2CCOCC2)nc(N)n1`, -25.8%; under `COc1ccc(C(=O)CSc2n[nH]c(=O)n2Cc2ccco2)cc1`, -26.1%.
For `COc1ccc(-[n+]2c(C)cc(/C=C3\Sc4ccccc4N3C)cc2C)cc1`, the protection from cell death (ATP increase) was determined as 162%.
Regarding `CCN(CC)C(=O)C1CCCN(C(=S)Nc2cccc3ccccc23)C1` (stereo unspecified), the protection from cell death (ATP increase) is -45.6%.
`Cc1ccc(NC(=O)c2ccc([N+](=O)[O-])o2)cc1S(=O)(=O)N1CCOCC1`: the protection from cell death (ATP increase) was -23.4% [at 12 µM].
`Cc1cccc(C)c1NC(=O)CNC(=O)c1c(C)nn(C)c1Cl`: the protection from cell death (ATP increase) is -41.5%.
